# About 4,000 (4.3%) of roughly 94,000 compounds were called active. Inconclusive means that the source gave no clear call. Such entries were picked first, then a sample of the others. Calls follow the shape of the dose curve; as a rule, active = well fitted inhibition curve with a large enough effect; inconclusive = small, poorly fitted or top-dose-only effect; inactive = no such curve, though single readings can be large or run the other way. Potencies of inconclusive entries are doubtful fits and often do not repeat.
# Test: Cytotoxic Profiling in NIH 3T3 Cell Line of Diverse Libraries Using Quantitative High-Throughput Screening; also: nearly all actives have a fitted effect of over 55% in size
# Conditions: NIH 3T3 viability, CellTiter-Glo ATP luminescence, 48-72 h; activity change, negative = cytotoxicity: at 96.7 µM (top of the series) unless noted; series mostly up to 96.7 µM
# How it was run: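 Mouse fibroblast NIH 3T3 cells, 400 per well, received compound via pintool and were incubated for 48 or 72 hr prior to CellTiter-Glo ATP luminescence measurement.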
# % is scaled to controls: 0 for no effect and ±100 for the full control effect; potency is read from the fitted curve at half-maximal effect; tags tell the direction and shape of the fitted curve.
Compound,Potency,"activity change, negative = cytotoxicity",outcome
Cc1ccc(CN2C(=O)OC(c3cccc(NC(=O)c4cccs4)c3)C2C(=O)NCC(C)C)cc1 (stereo unspecified),"inconclusive: 39.8 µM [inhibitor, partial curve, poor fit]",–,–
O=C(c1cccs1)N1CCC[C@H]1c1nc(-c2ccccc2)no1,–,inactive: -17.9%,–
CN1CCC2(CC1)CCN(Cc1ccc(OCC(O)CN3CCCCC3)cc1)C2 (stereo unspecified),"inconclusive: 89.1 µM [inhibitor, single point]",–,–
O=C(C[C@@H]1CCNC[C@@H]1Cc1cc(COc2ccccc2)on1)NCc1ccco1,"inconclusive: 112 µM [inhibitor, single point]",–,–
Cc1ccc(-c2ccc(CN)cc2)cc1Cl,active: 31.6 µM,–,–
O[C@H]1CC[C@@H](Cc2cc(-c3ccc(F)cc3)on2)O[C@@H]1CNCc1ccccn1,"inconclusive: 100 µM [inhibitor, partial curve]",–,–
O=C(CCC1CCCN(Cc2cc3ccccc3s2)C1)Nc1ccccc1F (stereo unspecified),"inconclusive: 56.2 µM [inhibitor, partial curve, poor fit]",–,–
CCn1ccc(C(=O)N2C[C@@H](Oc3ccccc3)C[C@H]2C(=O)N2CCOCC2)n1,–,inactive: -0.74%,–
O=C(NC1CCN(c2cc(-c3cccs3)[nH]n2)C1)c1cc2ccccc2[nH]1 (stereo unspecified),"inconclusive: 50.1 µM [inhibitor, partial curve, poor fit]",–,–
Cc1ccc2cc(CCC(=O)N3CCN(c4ccccn4)CC3)c(=O)[nH]c2c1,"inconclusive: 44.7 µM [inhibitor, partial curve, poor fit]",–,–
O=[S+]([O-])(NC1CCN(c2ccnc3ccnn23)CC1)c1cccs1,–,inactive: -16.9%,–
CC(C)S(=O)(=O)N1CCC(N2C(=O)C3(CCCC3)C2c2ccccc2)CC1 (stereo unspecified),"inconclusive: 70.8 µM [inhibitor, partial curve, poor fit]",–,–
C[C@H]1CCCN1C(=O)c1nnc(COc2ccccc2F)n1-c1ccccc1,"inconclusive: 63.1 µM [inhibitor, partial curve, poor fit]",–,–
N#Cc1ccc(CC(=O)N2CC(CNc3cccnc3)C3(C2)CN(c2ccccc2)C3)cc1 (stereo unspecified),"inconclusive: 100 µM [inhibitor, partial curve, poor fit]",–,–
O=C(NCc1ccc(Cl)cc1)c1c(OCC2CC2)cc(=O)n2c1CCOCC2,–,inactive: -31.6%,–
CC(C)c1cccc(NC(=O)C2CCN(C(=O)c3ncn4c3COC(c3ccccc3)C4)CC2)c1 (stereo unspecified),–,inactive: 3.77%,–
CCC1CN(Cc2cn(-c3ccccc3)nc2-c2ccc(OC)cc2F)CCO1 (stereo unspecified),–,inactive: -4.55%,–
Cc1ccc(S(=O)(=O)N2CCCN(C)c3ccccc32)c(C)c1,"inconclusive: 39.8 µM [inhibitor, partial curve, poor fit]",–,–
COc1ccc(NC(=O)c2cc(C(C)(C)C)nc3c2cnn3C)cc1,"inconclusive: 44.7 µM [inhibitor, full curve, poor fit]",–,–
COc1ccc(-c2nnc3ccc(N4CCc5ccccc5CC4)nn23)nc1,"inconclusive: 89.1 µM [inhibitor, partial curve, poor fit]",–,–
COc1ncccc1CN1CCC2(CC1)OC(=O)N(Cc1ccccc1C#N)C2(C)c1ccccc1 (stereo unspecified),"inconclusive: 44.7 µM [inhibitor, partial curve, poor fit]",–,–
CC(NC(=O)CNC(=O)c1cccc(-c2ccc(C(F)(F)F)cc2)c1)c1ccc(F)cc1 (stereo unspecified),"inconclusive: 44.7 µM [inhibitor, partial curve, poor fit]",–,–

Compound,Potency,"activity change, negative = cytotoxicity",outcome
CNC(=O)c1cc(C)nc2onc(C3CCCN(C(=O)C(C)(C)C)C3)c12 (stereo unspecified),–,inactive: -1.87%,–
N#Cc1ccc(CN2CC[C@H](c3nnc(Cc4ccccc4)o3)C2)cc1,"inconclusive: 79.4 µM [inhibitor, partial curve]",–,–
CCCNC(=O)N(C1CCOCC1)C1CCN(S(=O)(=O)c2cccnc2)CC1,–,–,inactive
Cc1cc(-c2nc3ccncc3[nH]2)c(C)[nH]1,inactive,–,–
COCCNC(=O)c1nc2sccn2c1-c1cccc(C(F)(F)F)c1,–,inactive: -8.43%,–
O=C(c1cccc(Cl)c1)N1CC(CNc2cccnc2)C2(C1)CN(c1ccccc1)C2 (stereo unspecified),"inconclusive: 44.7 µM [inhibitor, full curve]",–,–
N#Cc1cccc(CN2CCn3nnc(-c4nc(-c5ccsc5)no4)c3C2=O)c1,–,inactive: -23.1%,–
COc1ccc(F)c(CN2CCCN3CCC[C@H]3C2)c1Cl,"inconclusive: 44.7 µM [inhibitor, partial curve, poor fit]",–,–
CCC(=O)N1CCC2(CC1)NCCc1c2[nH]c2ccccc12,–,inactive: -18.1%,–
CC1=C[C@@H](CNC(=O)CC(C)(C)CC(=O)O)[C@H](C(C)C)C[C@H]1Cc1nc2c(C)cccc2[nH]1,–,inactive: -17.9%,–
COc1ccc(CNC(=O)c2ccc3c(c2)N(C(=O)c2ccc(F)cc2)CC3)c(OC)c1,"inconclusive: 35.5 µM [inhibitor, partial curve]",–,–
O=C(NC[C@H]1OC[C@@H](N(Cc2cccs2)Cc2cccs2)[C@@H]1O)c1ccccc1,"inconclusive: 112 µM [inhibitor, partial curve, poor fit]",–,–
O=C(COc1ccccc1)NC1CCCc2c1[nH]c1ccc(F)cc21 (stereo unspecified),–,inactive: -15.3%,–
CNC(=O)c1cc(C)nc2onc(C3CCCN(C(=O)Cc4cccc(Cl)c4)C3)c12 (stereo unspecified),–,inactive: -21.6%,–
O=C(C1CCCN1C(=O)Nc1ccc(Cl)cc1)N1CCC(c2ccccc2)CC1 (stereo unspecified),"inconclusive: 50.1 µM [inhibitor, partial curve, poor fit]",–,–
Cc1oc2c(c1C(=O)N1CC(C)(C)C(C)(O)C1)C(=O)CCC2 (stereo unspecified),–,inactive: -4.81%,–
CCn1cc(-c2ccc(F)cc2)cc1C(=O)NCCOC,"inconclusive: 56.2 µM [inhibitor, partial curve, poor fit]",–,–
CCCCOC(=O)N1CCC(=O)N(C)C[C@H]2COc3cc(OC)ccc3[C@H]21,"inconclusive: 63.1 µM [inhibitor, single point]",–,–
Cn1nccc1-c1ccc2ncn(-c3ccccc3)c(=O)c2n1,"inconclusive: 89.1 µM [inhibitor, partial curve]",–,–
Cc1nn(-c2ccccc2)c2c1C(C)N(C1CCN(C(=O)c3ccc(Cl)nc3)CC1)C2=O (stereo unspecified),active: 35.5 µM,–,–
COc1cc(F)ccc1-c1cc2c(ccn2CC2CCN(C)CC2)c(N2CCOCC2)n1,active: 70.8 µM,–,–
O=C(C1CCOCC1)N1CCCC(CCc2ccc(F)c(F)c2)C1 (stereo unspecified),"inconclusive: 89.1 µM [inhibitor, single point]",–,–

Compound,Potency,"activity change, negative = cytotoxicity",outcome
COC1CCC(C(=O)N2CC(COc3ccccc3)C3(C2)CN(c2ccccc2)C3)CC1 (stereo unspecified),active: 89.1 µM,–,–
Cc1ccc(NC(=O)C2CCN(c3ccnc4ccnn34)CC2)cc1,"inconclusive: 89.1 µM [inhibitor, partial curve]",–,–
CS(=O)(=O)N(C1CC1)C1CCOC2(CCN(C(=O)COc3ccc(F)cc3)CC2)C1 (stereo unspecified),"inconclusive: 44.7 µM [inhibitor, partial curve, poor fit]",–,–
Fc1cccc(CNc2ccc3nnc(-c4ccccn4)n3n2)c1,"inconclusive: 44.7 µM [inhibitor, partial curve]",–,–
CCN1c2cc(C(=O)Nc3cccc(OC)c3)ccc2C(=O)N2CCCCC21 (stereo unspecified),"inconclusive: 39.8 µM [inhibitor, partial curve, poor fit]",–,–
Cc1cc(-c2nn(-c3ccccc3F)cc2CN2CCC(N(C)C)C2)c(C)s1 (stereo unspecified),"inconclusive: 50.1 µM [inhibitor, partial curve, poor fit]",–,–
Cc1ccc(CNC(=O)c2cccc3c2CCN3C(=O)c2ccc(F)cc2)o1,–,inactive: -14.3%,–
Cn1nccc1-c1nccc2c(=O)cc(N3CCOCC3)oc12,active: 50.1 µM,–,–
CC(=O)N1CC2(CCN(Cc3c[nH]c4ccccc34)CC2)Cc2ccccc21,"inconclusive: 50.1 µM [inhibitor, partial curve, poor fit]",–,–
COc1ccc(-c2nc(N3CCOCC3)cc3c2CN(Cc2cnn(C)c2)C3=O)cn1,"inconclusive: 89.1 µM [inhibitor, partial curve]",–,–
Cc1nc2cccnc2n1CC1CCCN(S(=O)(=O)c2ccccc2)C1 (stereo unspecified),–,inactive: -24.6%,–
CN1CCC(N[C@@H](Cn2cc(F)c(=O)[nH]c2=O)C(=O)O)CC1,–,inactive: -2.99% [at 174 µM],–
N#Cc1ccc(CN2CCC(C3CCNC3)CC2)cc1 (stereo unspecified),"inconclusive: 50.1 µM [inhibitor, partial curve, poor fit]",–,–
COc1cc(CNC(=O)c2ccc3c(c2)N(C)C2CCCN2C3=O)cc(OC)c1 (stereo unspecified),–,inactive: -17.6%,–
COc1ccc(-c2ccc3nnc(CNC(=O)C(C)Oc4ccccc4)n3n2)cc1 (stereo unspecified),"inconclusive: 50.1 µM [inhibitor, partial curve, poor fit]",–,–
CCN1C(=O)C2CC3(CCN(Cc4ccc5c(c4)CCO5)CC3)CN2C1=O (stereo unspecified),–,inactive: -23%,–
O=C(C1CC1)N1CCC(N2C(=O)C3(CCCCC3)C2c2ccccc2)CC1 (stereo unspecified),"inconclusive: 39.8 µM [inhibitor, partial curve, poor fit]",–,–
COc1ccccc1Cn1c(=O)c(C(=O)NCCc2ccc(Cl)cc2)nc2cccnc21,"inconclusive: 50.1 µM [inhibitor, partial curve, poor fit]",–,–
COCC1CN(C2CCC2)CC12CCN(C(=O)c1ccccc1Cl)CC2 (stereo unspecified),"inconclusive: 70.8 µM [inhibitor, single point]",–,–
O=C(Nc1ccc(Cl)cc1)N1CCN(C(=O)c2cccc(-c3ccccn3)c2)CC1,"inconclusive: 50.1 µM [inhibitor, partial curve, poor fit]",–,–
Cc1ccc(Nc2ccnc(N3CCC(C(=O)NCC4CCCO4)CC3)n2)cc1 (stereo unspecified),"inconclusive: 50.1 µM [inhibitor, partial curve, poor fit]",–,–
O=C(NCc1cccs1)c1ccc2nnc(Cc3ccc(Cl)cc3)n2c1,"inconclusive: 44.7 µM [inhibitor, partial curve, poor fit]",–,–

# From PubChem BioAssay AID1345082 (National Center for Advancing Translational Sciences (NCATS), 2018)
